These results are taken from doi:10.1101/2025.02.04.636395.

Results are given in words; binding and its absence hold for the method and conditions named. Binding seen in cells or lysates may run through a third protein. Some binding calls cover weakened binding; strength is not graded here. Tags and fused reporters may be left off the sequences shown.

Holding throughout (assay): co-IP; GFP-trap (GFP-nanotrap agarose) from lysates of transfected HEK293T cells; lysis in 0.5% NP-40, 100 mM Tris-HCl pH 7.5 in PBS (in dH2O for GFP-SNX17); 1 h at 4 °C; western blot of endogenous Retriever subunits, CCC subunits and RAB32 or of co-expressed mCherry-LRMDA
(A western blot detects proteins with antibodies after separation by electrophoresis.)

One experiment concerns the target T1, GFP-LRMDA I221A (human).
T1 sequence: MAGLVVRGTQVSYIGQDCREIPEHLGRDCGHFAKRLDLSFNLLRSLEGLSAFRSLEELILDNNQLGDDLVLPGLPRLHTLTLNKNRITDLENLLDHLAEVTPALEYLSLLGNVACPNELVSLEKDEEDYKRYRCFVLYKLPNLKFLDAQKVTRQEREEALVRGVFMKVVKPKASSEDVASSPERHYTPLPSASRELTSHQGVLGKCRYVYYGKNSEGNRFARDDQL

The next experiment deals with T2, GFP-LRMDA D223A (human).
T2 sequence: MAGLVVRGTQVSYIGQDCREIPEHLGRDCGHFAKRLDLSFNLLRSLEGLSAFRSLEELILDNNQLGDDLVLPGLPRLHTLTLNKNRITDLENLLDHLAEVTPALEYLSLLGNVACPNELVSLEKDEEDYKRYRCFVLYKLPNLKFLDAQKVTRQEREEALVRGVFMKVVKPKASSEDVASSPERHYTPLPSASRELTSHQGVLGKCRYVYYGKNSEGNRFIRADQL

In experiment [1] the target is T3, GFP-LRMDA^127–226 (human).
T3 sequence: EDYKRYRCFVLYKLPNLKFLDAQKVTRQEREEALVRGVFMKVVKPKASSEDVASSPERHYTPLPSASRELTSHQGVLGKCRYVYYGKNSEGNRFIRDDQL

Experiment [2] has as its target T4, GFP-LRMDA Y208stop (human).
T4 sequence: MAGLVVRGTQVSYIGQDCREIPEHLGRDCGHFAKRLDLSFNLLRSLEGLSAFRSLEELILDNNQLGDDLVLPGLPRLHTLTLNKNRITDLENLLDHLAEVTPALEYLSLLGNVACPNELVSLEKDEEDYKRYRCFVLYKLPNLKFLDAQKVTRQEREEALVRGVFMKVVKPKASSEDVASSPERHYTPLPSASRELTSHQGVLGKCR

Experiment [3] concerns the target T5, GFP-LRMDA R222stop (human).
T5 sequence: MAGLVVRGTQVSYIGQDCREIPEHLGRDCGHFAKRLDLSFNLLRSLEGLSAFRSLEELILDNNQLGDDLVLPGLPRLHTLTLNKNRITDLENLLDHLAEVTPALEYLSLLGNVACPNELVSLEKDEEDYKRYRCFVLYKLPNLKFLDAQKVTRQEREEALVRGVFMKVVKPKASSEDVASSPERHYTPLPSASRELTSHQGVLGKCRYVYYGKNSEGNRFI

Another experiment concerns the target T6, GFP-LRMDA G217S (human).
T6 sequence: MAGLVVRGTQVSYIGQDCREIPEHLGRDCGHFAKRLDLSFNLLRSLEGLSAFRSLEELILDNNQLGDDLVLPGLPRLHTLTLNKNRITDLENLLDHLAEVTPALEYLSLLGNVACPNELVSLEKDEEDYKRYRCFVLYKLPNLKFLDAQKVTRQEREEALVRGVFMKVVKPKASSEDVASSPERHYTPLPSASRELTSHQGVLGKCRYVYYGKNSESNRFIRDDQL

In the next experiment the target is T7, GFP-LRMDA (human).
T7 sequence: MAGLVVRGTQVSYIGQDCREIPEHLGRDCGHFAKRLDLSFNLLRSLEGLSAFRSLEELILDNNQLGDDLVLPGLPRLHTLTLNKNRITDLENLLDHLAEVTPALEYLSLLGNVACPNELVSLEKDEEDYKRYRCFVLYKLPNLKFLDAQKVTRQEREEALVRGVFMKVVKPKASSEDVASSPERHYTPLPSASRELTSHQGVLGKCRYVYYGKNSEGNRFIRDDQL

B1: RAB32 (endogenous) (protein, UniProt Q13637 1-225)
chain: MAGGGAGDPGLGAAAAPAPETREHLFKVLVIGELGVGKTSIIKRYVHQLFSQHYRATIGVDFALKVLNWDSRTLVRLQLWDIAGQERFGNMTRVYYKEAVGAFVVFDISRSSTFEAVLKWKSDLDSKVHLPNGSPIPAVLLANKCDQNKDSSQSPSQVDQFCKEHGFAGWFETSAKDNINIEEAARFLVEKILVNHQSFPNEENDVDKIKLDQETLRAENKSQCC
B1: the binding result in the experiment with GFP-LRMDA I221A (human) was “binds”; with GFP-LRMDA D223A (human), “binds”; in experiment [1], “no binding”; in experiment [2], “binds”; in experiment [3] it was “binds”; in the experiment with GFP-LRMDA G217S (human) it was “binds”. Further, the binding result in the experiment with GFP-LRMDA (human) was “binds”.
